Measured values taken from PubChem BioAssay AID485344 (National Center for Advancing Translational Sciences (NCATS), 2010).
The whole screen tested about 340,000 compounds, of which about 6,900 (2%) were called active. Rule as the data show it: active = inhibition above about 30%; inactive = below that, where a call was filed. Only a part is listed here, and it is no random draw. The source gives no active or inactive call for entries shown without one.

target: D(2) dopamine receptor (Homo sapiens) (UniProt P14416); test: HTS Assay for Allosteric Antagonists of the Human D2 Dopamine Receptor: Primary Screen for Antagonists; conditions: HEK293 TREx D2 cells, calcium flux, dopamine EC80; at 10 µM; stronger effect = higher value; also: 0% is about no effect
How it was run: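 Tetracycline-induced HEK293 TREx cells expressing D2 receptor forced-coupled to calcium signalling, loaded with no-wash calcium dye. Compounds added and calcium flux read 180 s, then dopamine added at EC80 and read a further 180 s.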

Sequence of UniProt P14416 (P14416 whole entry, looked up): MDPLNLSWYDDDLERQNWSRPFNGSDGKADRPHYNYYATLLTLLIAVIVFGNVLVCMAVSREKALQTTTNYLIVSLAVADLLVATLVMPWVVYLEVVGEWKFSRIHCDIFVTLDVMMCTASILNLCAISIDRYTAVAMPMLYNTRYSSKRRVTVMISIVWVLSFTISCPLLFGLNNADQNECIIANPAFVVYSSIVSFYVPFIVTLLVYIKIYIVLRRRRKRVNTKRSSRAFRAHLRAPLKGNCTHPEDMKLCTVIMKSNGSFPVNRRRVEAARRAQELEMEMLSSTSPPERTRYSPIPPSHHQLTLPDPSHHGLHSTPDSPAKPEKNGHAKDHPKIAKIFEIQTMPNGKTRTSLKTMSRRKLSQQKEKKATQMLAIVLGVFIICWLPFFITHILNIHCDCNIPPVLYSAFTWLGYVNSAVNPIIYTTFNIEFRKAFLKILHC

SMILES | inhibition
O=C(O)Cc1sc(Nc2ccc(C(=O)O)cc2)nc1-c1ccccc1 | -17.1%
CCOC(=O)c1noc2ncn(CC(=O)Nc3cc(Cl)ccc3OC)c(=O)c12 | 7.7%
O=C(Cn1cnc2onc(-c3ccc(F)cc3)c2c1=O)N1CCN(c2ccccc2F)CC1 | -7.18%
COc1ccc2c(c1)CCc1c(C(=O)Nc3c(C)nn(Cc4c(Cl)cccc4Cl)c3C)noc1-2 | -2.71%
COc1cc(-c2nnc(NC(=O)CCS(=O)(=O)c3ccccc3)o2)cc(OC)c1OC | active: 41.2%
COc1ccccc1N1CCN(CCCNc2cc(=O)n(C)c(=O)n2C)CC1 | active: 64.1%
O=C(c1cccs1)c1cn(CCOc2ccc(F)cc2)c2ccccc12 | 13.1%
CCc1ccccc1NC(=O)c1cc2sc(Cl)cc2n1CC | -3.9%
CCOC(=O)c1c(C)[nH]c(C)c1S(=O)(=O)NCC(=O)Nc1ccc(CC)cc1 | -1.23%
COc1cc(-c2nc3ccc(Cl)cn3c2Nc2ccc3c(c2)OCO3)ccc1O | -13.3%
Cc1ccc(NC(=O)c2cc(CN3CCOCC3)on2)cc1Cl | 1.73%
Nc1nn(-c2ccccc2)nc1C(=O)OCc1ccccc1Br | 6.44%
CC1=C(C(=O)Nc2ccc(C)cc2Cl)C2(CCCCC2)OC1=O | -9.03%
Cc1cc2c(cc1[N+](=O)[O-])NC(CNC(C)C)CC2 (centres undefined) | active: 64.8%
COc1cc2ccccc2cc1C(=O)Nc1cccc(-c2nc3ccccc3o2)c1 | 9.9%
COc1ccc(N2CCN(C(=O)c3cn(C)c4ccc(S(=O)(=O)N(C)C5CCCCC5)cc4c3=O)CC2)cc1 | -5.58%
CC(C(=O)NCc1cccc(Br)c1)n1ncn2cccc2c1=O (centres undefined) | -12.9%
Cc1ccc(NC(=O)c2c(C(=O)Nc3ccccc3)sc3nc(C)cc(=O)n23)cc1 | 13.2%
COc1ccc(CNC(=O)C2CCN(S(=O)(=O)c3c(C)noc3/C=C/c3cccs3)CC2)cc1 | 10.6%
Fc1ccc(N2CCN(Cc3c[nH]c4ccccc34)CC2)cc1 | active: 92.8%
Cc1ccccc1NC(=O)CCOc1ccccc1 | -8.39%
CCCOc1ccc(C(=O)Nc2sc3c(c2C(=O)OCC)CCCCC3)cc1 | 17.4%
O=C1CC(c2ccc(F)cc2)c2c(n3c(nc4ccccc43)[nH]c2=O)N1 (centres undefined) | -20.9%
CCc1ccc(CNC(=O)C2CCN(C(=O)c3ccc(-n4ccc5ccccc54)s3)CC2)cc1 | 3.41%
Cc1ccccc1CS(=O)(=O)c1ncc(Cl)c(C(=O)Nc2nnc(C(C)C)s2)n1 | 11%

SMILES | inhibition
Cc1oc(-c2cccc(Br)c2)nc1CSc1nc2ncccc2[nH]1 | -2.36%
Cc1cccc(N2CCN(C(=O)CN3C(=O)COc4ccc(S(=O)(=O)N5CCCC5)cc43)CC2)c1C | -0.362%
CCOc1ccc(CCNC(=O)Cn2nc(CC)n3c(cc4c(OC)cccc43)c2=O)cc1OCC | -4.86%
Cc1nn(CC(C)C(=O)N2CCN(S(=O)(=O)c3ccc(Cl)cc3)CC2)c(C)c1C (centres undefined) | active: 31.5%
N#C/C(=C\c1c(Oc2ccc(F)cc2)nc2ccccn2c1=O)c1nc2ccccc2s1 | -26.4%
CCC(=O)OC1=CN(Cc2ccccc2)S(=O)(=O)c2ccccc21 | -18.1%
CC(C)c1ccc(NC(=O)CN2C=NS(=O)(=O)c3ccccc32)cc1 | -13%
CCC(=O)C1=C(c2ccc(F)cc2)N(C(=O)CC)n2c(nnc2C2CCCCC2)S1 | -5.15%
Cc1cc(C)cc(NC(=O)CSc2nnc(CNC(=O)c3c(F)cccc3Cl)o2)c1 | -0.48%
COC(=O)c1cc2oc(C)cc2n1Cc1ccc(C)cc1 | 0.12%
CCOC(=O)c1cc(OC(=O)c2cccc(F)c2)n(-c2ccccc2)n1 | 14.8%
CC(C)c1ccc(-c2noc(SCC(=O)N(C)c3ccc(F)cc3)n2)cc1 | 1.38%
CC(=O)N1CCCc2ccc(NC(=O)c3ccc(C(F)(F)F)cc3)cc21 | 12.8%
Cc1ccccc1-c1noc(-c2ccc(N3CCCC3)c([N+](=O)[O-])c2)n1 | -15.9%
CCOc1ccc(N(C(=O)c2ccc(OC)cc2)S(=O)(=O)c2ccc3c(c2)n(C)c(=O)n3C)cc1 | -0.101%
O=C(NCc1cccnc1)C1CCN(Cc2cc3ccccc3n2Cc2ccccc2)CC1 | -1.25%
O=C(NCc1ccccc1Cl)C(=O)NCC(c1cccs1)S(=O)(=O)c1ccccc1 (centres undefined) | 12.8%
O=c1cc(CN2CCN(C/C=C/c3ccccc3)CC2)c2cc(O)ccc2o1 | active: 82.5%
N#C/C(=C\c1ccc(-c2ccc(Cl)c(C(=O)O)c2)o1)c1nc2ccccc2[nH]1 | 9.82%
Cc1ccccc1NC(=O)CN1CCc2ccccc2C1 | active: 40.1%
COc1ccc2c(c1)Cc1sc(NC(=O)c3ccc(Cl)cc3)nc1-2 | -8.79%
Cc1cccn2c(=O)c3cc(C(=O)NC(C)c4ccccc4)c(=N)n(CCOCCO)c3nc12 (centres undefined) | -5.05%
CCOc1ccccc1N1CC(c2nc3ccccc3n2CCOc2ccccc2OC)CC1=O (centres undefined) | -8.38%
COc1ccc(-c2nnc(SCC(=O)c3ccc([N+](=O)[O-])cc3)o2)cc1OC | -6.09%
